In the RNAGym collection of RNA variant scans (doi:10.7554/elife.90254):
The source gives no read counts; variants with many changes may rest on few reads.

B1: LINE1-mini (parent)
chain: GGCAGAGCUCAACACAGCGUGGCAAAGUGGCUGUGGCUAGACUGCC

Variants of: B1
Assay: self-cleavage, relative activity (ratio to wild type); higher = more cleavage; in vitro, sequencing; the parent is a self-cleaving ribozyme
G1U A11U C15A A26G G30U C37G gave a self-cleavage of 0.02.
With C10U A26C G29U G36C C46A the self-cleavage was 0.01.
Variant C18A C37U G40A C46U has a self-cleavage of 0.02.
Variant A11C U20C G27U G33A A39G has a self-cleavage of 0.01.
Work on G2U C3U G33U U38A C42U yielded a self-cleavage of 0.03.
For C3U C13A G21A G36A, the self-cleavage was 1.88.
Variant C10U C23A A24G U32C C37A has a self-cleavage of 0.03.
Variant C3G G5U U34C has a self-cleavage of 0.08.
Variant G29C U32A U34C has a self-cleavage of 0.05.
In the case of G7U A11G A24U C31G C46U, the self-cleavage is reported as 0.01.
For C3A A26G C45G, the self-cleavage was 0.58.
A4U C18G G19A G35A U43C C46A gave a self-cleavage of 0.01.
G2U C10U G29U gave a self-cleavage of 0.05.
In the case of G7A C23U A39U, the self-cleavage is reported as 0.03.
Work on G7C C13A A25U A26G yielded a self-cleavage of 0.08.
Work on A6G U9G G29U G35U yielded a self-cleavage of 0.01.
For C3U A14G U20C G22A A39U, the self-cleavage was 0.18.
Work on G7A G36C C46U yielded a self-cleavage of 0.57.
G5U G7A C8A C10A G36U showed a self-cleavage of 0.03.
For G17U G19C G27U G29C, the self-cleavage was 0.59.
With C15A A25G A26C U43C the self-cleavage was 0.05.
Variant C18G G21C A26U G27U C31A has a self-cleavage of 0.12.
A6C C10A C23A G35U A39U gave a self-cleavage of 0.
In the case of G2U C13U C18U U34G G44U, the self-cleavage is reported as 0.05.
Work on G2A A14G G27A yielded a self-cleavage of 0.61.
Variant G17A C18A G40U C42G has a self-cleavage of 0.05.
C3A G5C G19A C23G C37A A41C G44C gave a self-cleavage of 0.02.
For C10U A12G C13U A14G U20A U32A C37U, the self-cleavage was 0.
Variant G5U C8U C15G C31A G40U has a self-cleavage of 0.11.
Variant C3U C10U C13G A24U G30U A41U has a self-cleavage of 0.2.
Work on C18A A26U U38G G40A yielded a self-cleavage of 0.01.
With C3U A14C A25C G30A C31A G44A the self-cleavage was 0.04.
Variant G7U A14G G44C has a self-cleavage of 0.08.
C13G A16G A26C showed a self-cleavage of 0.02.
G1U G19C C37G C42A U43C showed a self-cleavage of 0.01.
Variant G2C U9A U38A A39C C45A has a self-cleavage of 0.29.
Work on C8G G33A C37U C42U yielded a self-cleavage of 0.03.
Work on U20A G29C U32G yielded a self-cleavage of 0.59.
Variant G5A C13A G17A has a self-cleavage of 0.09.
Variant U9A A11C C13G G17C U34A has a self-cleavage of 0.01.
Work on G2U A4U C8G C31G yielded a self-cleavage of 0.
With A14C C31A U32A the self-cleavage was 0.02.
Work on A11C G19C C37U yielded a self-cleavage of 0.01.
For A4C G22A U34G, the self-cleavage was 0.06.
Variant G5U G7C C10U C31G U32A C42A has a self-cleavage of 0.01.
Work on A6C G27U C31G C45A C46G yielded a self-cleavage of 0.
Work on G1C C18U A25G A26U yielded a self-cleavage of 0.01.
C3A C13G U38A showed a self-cleavage of 0.47.
Variant C3A A39U G40U has a self-cleavage of 0.25.
For C3G G21U U32C, the self-cleavage was 0.02.
With A11C C31G U32A G44C the self-cleavage was 0.01.
G2A G19A A26C showed a self-cleavage of 0.42.
Work on C3G C10A A11G G17U G33U C46A yielded a self-cleavage of 0.01.
C15U G30U G33C G44A gave a self-cleavage of 0.05.
In the case of C18A G21A U34A G35U, the self-cleavage is reported as 0.01.
U9A A14U C15U A16C G17A gave a self-cleavage of 0.02.
C8U C31A U34C G44C showed a self-cleavage of 0.1.
For A25G G44C C46U, the self-cleavage was 0.1.
U9G A12U C42G G44A gave a self-cleavage of 0.07.
A6G C8G C18A G40C showed a self-cleavage of 0.
With G21U C23U A24U U28C the self-cleavage was 0.83.
G5U C37G A39U showed a self-cleavage of 0.04.
G5U A6U G36U showed a self-cleavage of 0.07.
Variant C10U A14U C15U C37U has a self-cleavage of 0.07.
For G22C G30C G44A, the self-cleavage was 0.18.
G2A A4U G33A C42G U43C showed a self-cleavage of 0.04.
G2A C3U G19A C37U A39C C45A showed a self-cleavage of 0.68.
For U9G G22U A24U U32A C37U C45U, the self-cleavage was 0.05.
C8U A14U G27C G29U U43A gave a self-cleavage of 0.02.
For G1A C23U A25C A26G, the self-cleavage was 1.57.
G7C G30A A39U gave a self-cleavage of 0.03.
In the case of G7A A11C C15A, the self-cleavage is reported as 0.01.
For C3A G7U G29A C46U, the self-cleavage was 0.17.
With U20A G30C G33U G36C the self-cleavage was 0.02.
C3U C8A G17C gave a self-cleavage of 0.14.
Work on G5A G21U G36A G44C yielded a self-cleavage of 0.15.
For G29U C31G U43A, the self-cleavage was 0.55.
In the case of C10A C13A A26U G29C, the self-cleavage is reported as 0.01.
For A26G G33U C45A, the self-cleavage was 0.09.
With C15U U32G C42A the self-cleavage was 0.
With G22U A25U U28C G36C the self-cleavage was 0.16.
U20C G21C G30C C31G gave a self-cleavage of 0.12.
C13G U32C G35A U38C C42A gave a self-cleavage of 0.02.
With G1U C18A G19U the self-cleavage was 0.08.
G5A A12U G22C C37U G40U C42G showed a self-cleavage of 0.02.
C13U A26G C42G gave a self-cleavage of 0.05.
Work on C10A G22C C31U yielded a self-cleavage of 0.
In the case of A12U C15A C42A, the self-cleavage is reported as 0.
C10A A11U U34C showed a self-cleavage of 0.03.
Variant G5A G19C C23A has a self-cleavage of 0.02.
For C13U G22A C31G, the self-cleavage was 0.34.
A4G G17U C46G showed a self-cleavage of 0.04.
Variant C3A C23G G30C has a self-cleavage of 1.06.
Variant A16U G40A C42G G44U C45A has a self-cleavage of 0.02.
In the case of C15U A16C G19C G22U, the self-cleavage is reported as 1.01.
In the case of G1A G17U U20C G27U G35U, the self-cleavage is reported as 0.03.
Variant G5U U9C C46A has a self-cleavage of 0.02.
With U20G A25G G35C U38A A39C G40U the self-cleavage was 0.06.
With G2A A12G A16G C37G the self-cleavage was 0.18.
G5U A14U C31A C45G showed a self-cleavage of 0.04.
In the case of C3U U9A G22C, the self-cleavage is reported as 0.06.
G29U U38G A41U C46A gave a self-cleavage of 0.02.
Work on G2U G5A C18A G21A G29U yielded a self-cleavage of 0.
Work on C3G A14C C18A U43A C46U yielded a self-cleavage of 0.11.
Variant A12G G21C C23G has a self-cleavage of 0.01.
With G7A U28C G40A C42A the self-cleavage was 0.05.
Variant C8A C18A A24G has a self-cleavage of 0.11.
A6G A14U G19C C37A showed a self-cleavage of 0.
For A25C G29U C42A, the self-cleavage was 0.2.
Work on A14U C23A G40U yielded a self-cleavage of 0.13.
Work on A26G G36C G40U yielded a self-cleavage of 0.05.
G35C U38A A39U C46U gave a self-cleavage of 0.05.
In the case of C13A G17C U38A U43C, the self-cleavage is reported as 0.33.
Work on C23U A25G G36A C42U U43G yielded a self-cleavage of 0.08.
For G2C G5C C8U A11U G27A G33A C37U, the self-cleavage was 0.02.
For C18G A24C G27A C42A, the self-cleavage was 0.06.
Work on C13A G33A U34C yielded a self-cleavage of 0.02.
G2A A14G C18G C31G gave a self-cleavage of 0.05.
In the case of C8G U20A G22C, the self-cleavage is reported as 0.06.
With G2A A6C A16U G44U the self-cleavage was 0.24.
C13U A14G G22A G40C G44A showed a self-cleavage of 0.03.
With G2C A4G A16G A39C G40U the self-cleavage was 0.06.
Work on C3U U20A G22C yielded a self-cleavage of 0.09.
Variant A25G C37U C46U has a self-cleavage of 0.06.
A4G C8A A14G G22C G36U showed a self-cleavage of 1.5.
Work on A12C A14U U43G yielded a self-cleavage of 0.01.
With G1U C18U C31A C37G the self-cleavage was 0.01.
In the case of C18G U38A G44A, the self-cleavage is reported as 0.07.
In the case of G7C A12C G19A A41C, the self-cleavage is reported as 0.01.
A6G C23G A25U G30A showed a self-cleavage of 0.11.
Variant C31G U32C A41U has a self-cleavage of 0.26.
For A14G G19U A24G A39U G40C, the self-cleavage was 0.02.
A6U G7A C10G G22U U38A showed a self-cleavage of 0.
Work on C3G G19U A26G yielded a self-cleavage of 0.1.
G5A A6G C8A C13G C42A gave a self-cleavage of 0.08.
Variant C3G G21C U32G has a self-cleavage of 0.06.
Work on G7A A12U G30C A39U G40C G44C yielded a self-cleavage of 0.2.
Variant C3G A6G G7C A11U A16C C18U C31A has a self-cleavage of 0.01.
In the case of C3G G21U C23A G29C, the self-cleavage is reported as 0.62.
For G5A U9C C23U C31G, the self-cleavage was 0.02.
G5C C13U U32C G35A gave a self-cleavage of 0.04.
A6G U9G A12C U20G A25U G35U C37U showed a self-cleavage of 0.
For G2U A16G G17C C31U, the self-cleavage was 0.02.
With U9A G21A G30A C45G the self-cleavage was 0.24.
In the case of C10U G17U C46A, the self-cleavage is reported as 0.03.
Work on A4U G5U C8U U20C yielded a self-cleavage of 0.07.
G5U G22U A26U U32A gave a self-cleavage of 0.01.
Variant G1U A26U G27A C31U has a self-cleavage of 0.05.
Work on G1C A4G G5C A12U G27A yielded a self-cleavage of 0.01.
A6G C13A C23G A25C U34C C37G showed a self-cleavage of 0.04.
G5A G35U G36A A39G gave a self-cleavage of 0.05.
C10G A11G U28C G36U gave a self-cleavage of 0.
A16U A25G G35C U43A gave a self-cleavage of 0.01.
Work on U20A G21A A39U yielded a self-cleavage of 0.27.
Work on G21U G33U A41G yielded a self-cleavage of 0.02.
Work on A4G U28G G44U yielded a self-cleavage of 0.03.
For C13A C15A G36U A41U, the self-cleavage was 0.03.
A6G C13A U20G G27A C31G showed a self-cleavage of 0.02.
G2U G7A A12U C18U G36U showed a self-cleavage of 0.18.
Work on G2C A6C C13A G35C yielded a self-cleavage of 0.01.
In the case of A4U A6G U34G, the self-cleavage is reported as 0.02.
Variant U20A G21A A24C C37A A39U has a self-cleavage of 0.02.
Variant A4U G5U C45U has a self-cleavage of 0.07.
C10A G17A A24C A25C C37G U38C C46G gave a self-cleavage of 0.01.
Variant G22C A26C G27U G36U A41G has a self-cleavage of 0.07.
Variant U9C C18U G21C G36A has a self-cleavage of 0.08.
With G33A A39C A41G the self-cleavage was 0.02.
